Measured values as given in the supplement of paper PMC8728848.
The list shows a part of the results.

What was measured:
Assay in all cases: glycan array binding signal (z-score within array); higher = stronger binding
Details in all cases: glycan notation: IUPAC condensed, linker removed
Fuc(a1-2)Gal = target: Fuc(a1-2)Gal
Summary of the method: (§1)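 The binding signal is a Z-score computed within each array. Data were drawn from 3228 arrays in the Consortium for Functional Glycomics database, restricted to those with a known protein sequence. Scores were averaged over arrays of the same protein sequence at different concentrations or buffers, and over linkers, and negative values can be taken as non-binding.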

Fuc(a1-2)Gal(b1-3)GalNAc = target: Fuc(a1-2)Gal(b1-3)GalNAc
Summary of the method: as §1

[1] = target: Fuc(a1-2)Gal(b1-3)GalNAc(a1-3)[Fuc(a1-2)]Gal(b1-4)Glc
Summary of the method: as §1

[2] = target: Fuc(a1-2)Gal(b1-3)GalNAc(a1-3)[Fuc(a1-2)]Gal(b1-4)GlcNAc
Summary of the method: as §1

[3] = target: Fuc(a1-2)Gal(b1-3)GalNAc(b1-3)Gal
Summary of the method: as §1

[4] = target: Fuc(a1-2)Gal(b1-3)GalNAc(b1-3)Gal(a1-4)Gal(b1-4)Glc
Summary of the method: as §1

[5] = target: Fuc(a1-2)Gal(b1-3)GalNAc(b1-4)[Neu5Ac(a2-3)]Gal(b1-4)Glc
Summary of the method: as §1

Fuc(a1-2)Gal(b1-3)GlcNAc = target: Fuc(a1-2)Gal(b1-3)GlcNAc
Summary of the method: as §1

[6] = target: Fuc(a1-2)Gal(b1-3)GlcNAc(b1-2)Man(a1-3)[Fuc(a1-2)Gal(b1-3)GlcNAc(b1-2)Man(a1-6)]Man(b1-4)GlcNAc(b1-4)GlcNAc
Summary of the method: as §1

[7] = target: Fuc(a1-2)Gal(b1-3)GlcNAc(b1-2)Man(a1-3)[Fuc(a1-2)Gal(b1-3)GlcNAc(b1-2)Man(a1-6)]Man(b1-4)GlcNAc(b1-4)[Fuc(a1-6)]GlcNAc
Summary of the method: as §1

[8] = target: Fuc(a1-2)Gal(b1-3)GlcNAc(b1-3)Gal(b1-4)Glc
Summary of the method: as §1

[9] = target: Fuc(a1-2)Gal(b1-3)GlcNAc(b1-3)GalNAc
Summary of the method: as §1

[10] = target: Fuc(a1-2)Gal(b1-3)GlcNAc(b1-3)[Fuc(a1-3)[Gal(b1-4)]GlcNAc(b1-6)]Gal(b1-4)Glc
Summary of the method: as §1

[11] = target: Fuc(a1-2)Gal(b1-3)GlcNAc(b1-3)[Gal(b1-4)GlcNAc(b1-6)]Gal(b1-4)Glc
Summary of the method: as §1

[12] = target: Fuc(a1-2)Gal(b1-3)[Fuc(a1-4)]GlcNAc
Summary of the method: as §1

[13] = target: Fuc(a1-2)Gal(b1-3)[Fuc(a1-4)]GlcNAc(b1-2)Man(a1-3)[Fuc(a1-2)Gal(b1-3)[Fuc(a1-4)]GlcNAc(b1-2)Man(a1-6)]Man(b1-4)GlcNAc(b1-4)GlcNAc
Summary of the method: as §1

[14] = target: Fuc(a1-2)Gal(b1-3)[Fuc(a1-4)]GlcNAc(b1-3)[Fuc(a1-3)[Gal(b1-4)]GlcNAc(b1-6)]Gal(b1-4)Glc
Summary of the method: as §1

[15] = target: Fuc(a1-2)Gal(b1-3)[Fuc(a1-4)]GlcNAc(b1-3)[Gal(b1-4)GlcNAc(b1-6)]Gal(b1-4)Glc
Summary of the method: as §1

Fuc(a1-2)Gal(b1-4)Glc = target: Fuc(a1-2)Gal(b1-4)Glc
Summary of the method: as §1

Fuc(a1-2)Gal(b1-4)Glc6S = target: Fuc(a1-2)Gal(b1-4)Glc6S
Summary of the method: as §1

Fuc(a1-2)Gal(b1-4)GlcNAc = target: Fuc(a1-2)Gal(b1-4)GlcNAc
Summary of the method: as §1

[16] = target: Fuc(a1-2)Gal(b1-4)GlcNAc(b1-2)Man(a1-3)[Fuc(a1-2)Gal(b1-4)GlcNAc(b1-2)Man(a1-6)]Man(b1-4)GlcNAc(b1-4)GlcNAc
Summary of the method: as §1

[17] = target: Fuc(a1-2)Gal(b1-4)GlcNAc(b1-2)Man(a1-3)[Fuc(a1-2)Gal(b1-4)GlcNAc(b1-2)Man(a1-6)]Man(b1-4)GlcNAc(b1-4)[Fuc(a1-6)]GlcNAc
Summary of the method: as §1

[18] = target: Fuc(a1-2)Gal(b1-4)GlcNAc(b1-2)[Fuc(a1-2)Gal(b1-4)GlcNAc(b1-4)]Man(a1-3)[Fuc(a1-2)Gal(b1-4)GlcNAc(b1-2)Man(a1-6)]Man(b1-4)GlcNAc(b1-4)GlcNAc
Summary of the method: as §1

[19] = target: Fuc(a1-2)Gal(b1-4)GlcNAc(b1-3)Gal(b1-4)GlcNAc
Summary of the method: as §1

[20] = target: Fuc(a1-2)Gal(b1-4)GlcNAc(b1-3)Gal(b1-4)GlcNAc(b1-3)Gal(b1-4)GlcNAc
Summary of the method: as §1

[21] = target: Fuc(a1-2)Gal(b1-4)GlcNAc(b1-3)GalNAc
Summary of the method: as §1

[22] = target: Fuc(a1-2)Gal(b1-4)GlcNAc6S
Summary of the method: as §1

[23] = target: Fuc(a1-2)Gal(b1-4)[Fuc(a1-3)]GlcNAc
Summary of the method: as §1

[24] = target: Fuc(a1-2)Gal(b1-4)[Fuc(a1-3)]GlcNAc(b1-2)Man(a1-3)[Fuc(a1-2)Gal(b1-4)[Fuc(a1-3)]GlcNAc(b1-2)Man(a1-6)]Man(b1-4)GlcNAc(b1-4)GlcNAc
Summary of the method: as §1

[25] = target: Fuc(a1-2)Gal(b1-4)[Fuc(a1-3)]GlcNAc(b1-2)[Fuc(a1-2)Gal(b1-4)[Fuc(a1-3)]GlcNAc(b1-4)]Man(a1-3)[Fuc(a1-2)Gal(b1-4)[Fuc(a1-3)]GlcNAc(b1-2)Man(a1-6)]Man(b1-4)GlcNAc(b1-4)GlcNAc
Summary of the method: as §1

[26] = target: Fuc(a1-2)Gal(b1-4)[Fuc(a1-3)]GlcNAc(b1-3)Gal(b1-4)[Fuc(a1-3)]GlcNAc
Summary of the method: as §1

[27] = target: Fuc(a1-2)Gal(b1-4)[Fuc(a1-3)]GlcNAc(b1-3)Gal(b1-4)[Fuc(a1-3)]GlcNAc(b1-3)Gal(b1-4)[Fuc(a1-3)]GlcNAc
Summary of the method: as §1

[28] = target: Fuc(a1-2)Gal(b1-4)[Fuc(a1-3)]GlcNAc(b1-3)GalNAc
Summary of the method: as §1

Fuc(a1-2)Gal6S(b1-4)Glc = target: Fuc(a1-2)Gal6S(b1-4)Glc
Summary of the method: as §1

[29] = target: Fuc(a1-2)Gal6S(b1-4)Glc6S
Summary of the method: as §1

[30] = target: Fuc(a1-2)Gal6S(b1-4)GlcNAc
Summary of the method: as §1

B1: ASAL (Allium sativum), P83886 (protein)
chain: MGRTTSSPKAMMRIATVAAILTILASTCMARNVLTNGEGLYAGQSLDVEQYKFIMQDDCNLVLYEYSTPIWASNTGVTGKNGCRAVMQRDGNFVVYDVNGRPVWASNSVRGNGNYILVLQKDRNVVIYGSDIWSTGTYRRSVGGAVVMAMNGTVDGGSVIGPVVVNQNVTAAIRKVGTGAA
Fuc(a1-2)Gal
  glycan array binding signal (z-score): -0.276
Fuc(a1-2)Gal(b1-3)GalNAc
  glycan array binding signal (z-score): -0.234
[1]
  glycan array binding signal (z-score): -0.231
[2]
  glycan array binding signal (z-score): -0.271
[3]
  glycan array binding signal (z-score): -0.278
[4]
  glycan array binding signal (z-score): -0.251
[5]
  glycan array binding signal (z-score): -0.267
Fuc(a1-2)Gal(b1-3)GlcNAc
  glycan array binding signal (z-score): -0.289
[6]
  glycan array binding signal (z-score): -0.102
[7]
  glycan array binding signal (z-score): 0.067
[8]
  glycan array binding signal (z-score): -0.274
[9]
  glycan array binding signal (z-score): -0.269
[10]
  glycan array binding signal (z-score): -0.241
[11]
  glycan array binding signal (z-score): -0.228
[12]
  glycan array binding signal (z-score): -0.241
[13]
  glycan array binding signal (z-score): -0.211
[14]
  glycan array binding signal (z-score): -0.249
[15]
  glycan array binding signal (z-score): -0.204
Fuc(a1-2)Gal(b1-4)Glc
  glycan array binding signal (z-score): -0.221
Fuc(a1-2)Gal(b1-4)Glc6S
  glycan array binding signal (z-score): -0.153
Fuc(a1-2)Gal(b1-4)GlcNAc
  glycan array binding signal (z-score): -0.236
[16]
  glycan array binding signal (z-score): -0.231
[17]
  glycan array binding signal (z-score): -0.22
[18]
  glycan array binding signal (z-score): -0.079
[19]
  glycan array binding signal (z-score): -0.272
[20]
  glycan array binding signal (z-score): -0.25
[21]
  glycan array binding signal (z-score): -0.262
[22]
  glycan array binding signal (z-score): -0.272
[23]
  glycan array binding signal (z-score): -0.264
[24]
  glycan array binding signal (z-score): -0.19
[25]
  glycan array binding signal (z-score): -0.25
[26]
  glycan array binding signal (z-score): -0.24
[27]
  glycan array binding signal (z-score): -0.277
[28]
  glycan array binding signal (z-score): -0.166
Fuc(a1-2)Gal6S(b1-4)Glc
  glycan array binding signal (z-score): -0.234
[29]
  glycan array binding signal (z-score): -0.175
[30]
  glycan array binding signal (z-score): -0.247
